# Hit rate of the full screen: of about 220,000 compounds, about 5,700 (2.6%) were called active. Inconclusive results, whose numbers are uncertain, are shown with a selection of clear calls. The call rests on the fitted dose curve; in most records, active means well fitted inhibition curve with a large enough effect; inconclusive means small, poorly fitted or top-dose-only effect; inactive means no such curve, though single readings can be large or run the other way. Where the call is inconclusive, the potency comes from a doubtful curve fit.
# Target: Lysine-specific demethylase 5B (Homo sapiens) (UniProt Q9UGL1)
# UniProt Q9UGL1, sequence (Q9UGL1 whole entry, looked up): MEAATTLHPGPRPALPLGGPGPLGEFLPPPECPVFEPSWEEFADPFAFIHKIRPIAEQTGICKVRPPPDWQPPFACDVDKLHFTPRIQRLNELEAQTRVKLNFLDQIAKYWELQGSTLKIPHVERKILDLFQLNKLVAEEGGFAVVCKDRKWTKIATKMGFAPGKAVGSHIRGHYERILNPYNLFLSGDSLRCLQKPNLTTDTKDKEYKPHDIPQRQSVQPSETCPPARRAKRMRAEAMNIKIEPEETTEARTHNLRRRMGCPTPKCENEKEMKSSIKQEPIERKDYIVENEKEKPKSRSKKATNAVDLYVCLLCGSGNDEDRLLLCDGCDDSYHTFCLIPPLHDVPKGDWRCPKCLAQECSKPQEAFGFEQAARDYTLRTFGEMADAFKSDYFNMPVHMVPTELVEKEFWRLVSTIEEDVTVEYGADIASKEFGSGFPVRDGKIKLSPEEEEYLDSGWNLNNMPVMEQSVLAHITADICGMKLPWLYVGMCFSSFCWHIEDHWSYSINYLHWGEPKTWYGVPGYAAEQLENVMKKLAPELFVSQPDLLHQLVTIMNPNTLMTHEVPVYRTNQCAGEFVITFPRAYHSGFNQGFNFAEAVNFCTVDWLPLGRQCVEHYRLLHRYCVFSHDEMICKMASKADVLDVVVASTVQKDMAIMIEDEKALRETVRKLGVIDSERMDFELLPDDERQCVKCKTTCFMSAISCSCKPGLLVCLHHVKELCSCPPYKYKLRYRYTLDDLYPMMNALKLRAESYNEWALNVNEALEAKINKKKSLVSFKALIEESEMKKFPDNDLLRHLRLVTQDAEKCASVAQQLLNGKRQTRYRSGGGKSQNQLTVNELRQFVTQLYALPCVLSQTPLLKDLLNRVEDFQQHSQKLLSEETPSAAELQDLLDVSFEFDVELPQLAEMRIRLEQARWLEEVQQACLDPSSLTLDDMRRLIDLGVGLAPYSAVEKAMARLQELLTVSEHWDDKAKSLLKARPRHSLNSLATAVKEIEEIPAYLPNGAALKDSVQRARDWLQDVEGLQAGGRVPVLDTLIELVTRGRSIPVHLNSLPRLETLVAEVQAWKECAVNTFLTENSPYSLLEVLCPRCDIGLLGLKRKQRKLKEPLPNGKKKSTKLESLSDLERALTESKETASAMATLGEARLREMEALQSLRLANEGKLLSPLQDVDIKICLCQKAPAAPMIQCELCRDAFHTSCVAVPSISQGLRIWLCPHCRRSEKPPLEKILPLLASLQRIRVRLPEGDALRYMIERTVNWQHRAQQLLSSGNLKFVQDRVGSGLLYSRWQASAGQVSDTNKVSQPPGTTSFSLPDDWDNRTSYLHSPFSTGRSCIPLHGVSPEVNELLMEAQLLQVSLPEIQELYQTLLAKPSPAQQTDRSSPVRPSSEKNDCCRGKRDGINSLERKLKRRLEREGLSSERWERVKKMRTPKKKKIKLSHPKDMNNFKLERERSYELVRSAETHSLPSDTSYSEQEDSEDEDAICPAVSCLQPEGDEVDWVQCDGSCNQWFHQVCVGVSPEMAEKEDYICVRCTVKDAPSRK
# Assay: Primary screen for KDM5B Histone Demethylases FDH-coupled qHTS; further: nearly all actives have a fitted effect of over 70% in size
# Details: FDH-coupled NADH fluorescence (FDH is formaldehyde dehydrogenase); series mostly up to 57.7 µM
# Procedure, shortened: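 Coupled FDH/NAD⁺ fluorescence readout. KDM5BΔAP 200 nM final; compound titration, 10 min RT preincubation; substrate mix 12.5 µM H3K4me3, 25 µM 2-OG, 50 µM Fe(II), 100 µM ascorbate, 0.25 mM NAD⁺, 0.25 U/mL FDH; ΔRFU over 30 min.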
# Potency means the concentration at half of the fitted maximal effect; tags describe the fitted curve by direction and shape.
row,SMILES,Potency
1,CCCN(Cc1cc2cc(OC)ccc2[nH]c1=O)C(=O)c1ccco1,"inconclusive: 31.6 µM [inhibitor, single point]"
2,CN1CCN(c2oc(-c3cccs3)nc2C#N)CC1,"inconclusive: 14.1 µM [inhibitor, partial curve, poor fit]"
3,CNS(=O)(=O)c1cc(-c2nnc(Nc3ccc(C)cc3C)c3ccccc23)ccc1C,"inconclusive: 35.5 µM [inhibitor, single point]"
4,O=C(CSc1nncn2c1cc1occc12)Nc1ccccc1C(F)(F)F,"inconclusive: 17.8 µM [inhibitor, partial curve, poor fit]"
5,O=C(NCc1nc(-c2ccccc2)no1)Nc1cccc2ccccc12,inactive
6,CCc1ccccc1NC(=O)CN(c1cccc(C)c1C)S(C)(=O)=O,"inconclusive: 3.55 µM [inhibitor, partial curve, poor fit]"
7,CCOC(=O)C1(Cc2ccccc2C)CCCN(Cc2cn(CC(N)=O)c3ccccc23)C1 (stereo not given),inactive
8,COc1cc(OC)c(C(=O)Nc2nc(C)c(C(=O)N(C)C)s2)cc1OC,"inconclusive: 25.1 µM [inhibitor, partial curve, poor fit]"
9,O=C1NNC(c2ccccc2)=N/C1=C\c1ccccc1Cl,"inconclusive: 20 µM [inhibitor, single point]"
10,Cc1ccc(CN2CCN(C(=O)CCC[C@H]3NC[C@@H]4C[C@H]3CN(Cc3ccccc3)C4)CC2)cc1,"inconclusive: 14.1 µM [inhibitor, partial curve]"
11,N#CC1=C(NC(=O)c2ccccc2)CCC(C#N)(c2ccccc2)C1 (stereo not given),inactive
12,OCC1CN(Cc2ccccc2)CC12CCN(Cc1ccncc1)CC2 (stereo not given),"inconclusive: 31.6 µM [inhibitor, partial curve, poor fit]"
13,O=c1nc2c(-c3ccc(F)cc3Cl)n[nH]n2c2ccccc12,"inconclusive: 31.6 µM [inhibitor, partial curve, poor fit]"
14,COCc1cc(C)nc2sc(C(=O)Nc3ccc(OC(F)(F)F)cc3)c(N)c12,"inconclusive: 50.1 µM [inhibitor, single point]"
15,CCN(C(=O)COC(=O)c1ccccc1NCc1ccco1)c1c(N)n(Cc2ccccc2)c(=O)[nH]c1=O,"inconclusive: 25.1 µM [inhibitor, partial curve, poor fit]"
16,Cc1nn(-c2ccccc2)c2nc(N)c(C(N)=O)cc12,"inconclusive: 25.1 µM [inhibitor, partial curve, poor fit]"
17,Cc1cccc(C(=O)N2CCc3cc(CNC(=O)c4ccc(Br)o4)ccc32)c1,"inconclusive: 28.2 µM [inhibitor, partial curve, poor fit]"
18,O=[N+]([O-])c1ccc(S(=O)(=O)NCc2nc3cccnc3n2Cc2ccccc2Cl)cc1,"inconclusive: 39.8 µM [inhibitor, single point]"
19,Cc1ccc(S(=O)(=O)N2CCCC(CCC(=O)NC3CCCCC3)C2)cc1 (stereo not given),"inconclusive: 17.8 µM [inhibitor, partial curve]"
20,COc1ccc(-c2cc(N3CCCN(C(=O)C4CCCC4)CC3)n[nH]2)cc1,"inconclusive: 20 µM [inhibitor, partial curve]"

row,SMILES,Potency
1,Cc1ccc(C)c(OCCn2cc(C(=O)c3cccs3)c3ccccc32)c1,"inconclusive: 25.1 µM [inhibitor, partial curve, poor fit]"
2,CCCCNC(=O)Cc1c(C)[nH]c2ccc(CC)cc12,inactive
3,CCN1CCN(CCCN2CC3(CCN(c4ncccc4F)CC3)OC2=O)CC1,active: 17.8 µM
4,O=C(CSc1ccc2nnc(-c3cccnc3)n2n1)Nc1ccccc1C(F)(F)F,"inconclusive: 39.8 µM [inhibitor, partial curve, poor fit]"
5,Cc1ccc(CNC(=O)c2cnc(N3CCCCC3)c3ccccc23)cc1,"inconclusive: 39.8 µM [inhibitor, partial curve, poor fit]"
6,NCCn1cc(C(=O)NC2CCCN(c3cnccn3)C2)nn1 (stereo not given),"inconclusive: 25.1 µM [inhibitor, single point]"
7,CN1[C@@H](CCC(=O)N2CCCC2)CNC(=O)[C@@H]2[C@H]1CCN2Cc1ccccc1,"inconclusive: 28.2 µM [inhibitor, partial curve]"
8,O=c1ncn(CC2CC2)c2ccc(-c3ccc(F)cc3F)nc12,active: 31.6 µM
9,COc1ccc(C[N+]2=C(N)NC3=C4CCCCC4n4c(=O)n(-c5ccccc5)c(=O)n4C3C2)c(OC)c1 (stereo not given),"inconclusive: 17.8 µM [inhibitor, partial curve, poor fit]"
10,CCc1nc2c(c(-c3ccc(OC)cc3)n1)CN([S+](=O)([O-])c1cccc(C(F)(F)F)c1)CC2,"inconclusive: 56.2 µM [inhibitor, partial curve, poor fit]"
11,COc1ccccc1-c1onc(C)c1C(=O)NCc1ccccc1Cl,"inconclusive: 25.1 µM [inhibitor, single point]"
12,O=C(c1ccc(F)cc1)N1C[C@@H]2C[C@H](C1)c1ccc(NS(=O)(=O)Cc3ccccc3)c(=O)n1C2,"inconclusive: 22.4 µM [inhibitor, single point]"
13,C#CCn1c(=NC(=O)c2ccco2)sc2cccc(Cl)c21,"inconclusive: 39.8 µM [inhibitor, partial curve, poor fit]"
14,CCc1ccc(CNC(=O)c2cc3c(=O)n(CC)c4ccccc4c3s2)cc1,"inconclusive: 2.51 µM [inhibitor, full curve, poor fit]"
15,Cc1cc(NS(=O)(=O)c2ccc3c(c2)CN(C(=O)CCC(C)C)CC3)no1,inactive
16,CCN(CC)C(=O)COC(=O)c1ccccc1-c1ncc(-c2ccccc2F)o1,"inconclusive: 22.4 µM [inhibitor, partial curve, poor fit]"
17,Cc1ccc(NC(=O)C(=O)NCC(c2cccnc2)N2CCN(c3ccccc3F)CC2)cc1F (stereo not given),inactive
18,CC1CCC(NC(=O)c2ccc3c(c2)N(Cc2ccccc2)C(=O)c2ccccc2S3(=O)=O)CC1 (stereo not given),"inconclusive: 1.26 µM [inhibitor, full curve, poor fit]"
19,CCOc1ccc(NC(=O)c2c(NC(=O)CN3CCCC(C)C3)sc3c2CCC3)cc1 (stereo not given),"inconclusive: 39.8 µM [inhibitor, single point]"
20,COc1cc(Cl)ccc1C(=O)NC1CCN(c2cc(-c3cccs3)[nH]n2)C1 (stereo not given),"inconclusive: 11.2 µM [inhibitor, partial curve]"

row,SMILES,Potency
1,CCc1ccc(Cn2nc(C3CC3)nc2-c2cnn(C)c2)cc1,inactive
2,Cc1noc(-c2cn(C3CCN(C(=O)c4cccc5[nH]ccc45)CC3)nn2)n1,"inconclusive: 25.1 µM [inhibitor, single point]"
3,COCC(=O)NC[C@H]1CCN(Cc2ccccc2OC)C[C@H]1N(C)C,"inconclusive: 35.5 µM [inhibitor, partial curve, poor fit]"
4,CCSc1ncc(Cl)c(C(=O)Nc2ccc(S(=O)(=O)N3CCC(C)CC3)cc2)n1,"inconclusive: 8.91 µM [inhibitor, partial curve, poor fit]"
5,CCCCN(CCCNC(=O)c1ccc(Sc2ccc(Cl)cc2)c(NC(C)=O)c1)c1ccccc1,"inconclusive: 17.8 µM [inhibitor, partial curve, poor fit]"
6,Cc1ccc(NC(=O)CSC2=Nc3ccccc3C3=NC(Cc4ccccc4)C(=O)N23)cc1C (stereo not given),"inconclusive: 15.8 µM [inhibitor, partial curve, poor fit]"
7,COCC(=O)NC[C@H]1CCN(Cc2cn(C)c3ccccc23)C[C@H]1N(C)C,"inconclusive: 15.8 µM [inhibitor, partial curve, poor fit]"
8,COCCN(C)C(=O)C(C)(C)Oc1nn(Cc2cccc(Cl)c2)c2ccccc12,"inconclusive: 35.5 µM [inhibitor, single point]"
9,COc1ccc2cc(-c3nc(Cl)c4c5c(sc4n3)CCCC5)c(=O)oc2c1,"inconclusive: 2.51 µM [inhibitor, partial curve, poor fit]"
10,COc1ccc(NC(=O)Cc2ccc(N(Cc3cccc(F)c3)C(=O)c3ccco3)cc2)cc1,"inconclusive: 20 µM [inhibitor, partial curve, poor fit]"
11,COc1cccc(CNc2nccn(-c3cc(C)cc(C)c3)c2=O)c1,"inconclusive: 17.8 µM [inhibitor, single point]"
12,CN(C)c1ccc(-c2nc3cnccn3c2Nc2cccc(C(F)(F)F)c2)cc1,"inconclusive: 1.12 µM [inhibitor, full curve, poor fit]"
13,COCc1ccc2c(c1)c(OC(C)(C)C(=O)NCC(F)(F)F)nn2Cc1ccccc1,"inconclusive: 39.8 µM [inhibitor, single point]"
14,N#Cc1nc(-c2ccco2)oc1N1CCN(C(=O)CNC(c2ccccc2)c2ccccc2)CC1,"inconclusive: 39.8 µM [inhibitor, single point]"
15,CN(C)C(=O)SN(C(=O)c1ccccc1)c1ccccc1,"inconclusive: 6.31 µM [inhibitor, full curve, poor fit]"
16,CCC(c1nc(-c2cccnn2)no1)n1cc(C(C)=O)c2ccccc21 (stereo not given),inactive
17,Cc1ccccc1C(=O)Cn1c(=O)n(CCc2ccccc2)c(=O)c2sccc21,inactive
18,CCCn1nc(C(=O)OCc2cccc(Cl)c2)c2ccccc2c1=O,inactive
19,Cc1ccc(S(=O)(=O)NCC(c2ccc(N(C)C)cc2)N2CCc3ccccc32)cc1C (stereo not given),"inconclusive: 28.2 µM [inhibitor, partial curve, poor fit]"
20,Nc1nccnc1C(=O)NCC(O)c1ccc(F)cc1F (stereo not given),"inconclusive: 22.4 µM [inhibitor, partial curve, poor fit]"
